Experimental findings from the supplement of paper PMC8183993 are described below.

Where a name gives a salt, the structure may show the parent alone. ± gives the standard deviation of the averaged measurements. The full ranking holds about 3,200 compounds; the median of “nuclei count (viability) relative to DMSO” is about 99, and the lowest 2% start at about 16. Some of the results follow.

The experiment relates to U2OS. The experiment is described as follows: nuclei count (viability) relative to DMSO (% of DMSO); higher = more viable cells. The settings on record: 10 µM; 24 h. How it is done: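 Primary image-based screen in U2OS cells: compounds at 10 uM for 24 h, then a 1 h o-propargyl-puromycin (OPP) pulse, click labelling, and high-throughput microscopy. Mean cytoplasmic OPP intensity and nuclei count were normalised to DMSO wells within each plate (DMSO = 100) and averaged over triplicate plates.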
For the molecule `N=C(N)SCCc1c[nH]cn1` [Imetit dihydrobromide], the nuclei count worked out at 93.3. The result for `COc1cc(O)cc(O)c1C(=O)/C=C/c1ccccc1` [Cardamonin] reads 84.8; that for `CC(C)NCC(O)COc1ccc(CC(N)=O)cc1` (racemic) [(RS)-Atenolol], 65.9. `Cc1cnc(NC(=O)C2=C(O)c3ccccc3S(=O)(=O)N2C)s1` [Meloxicam] displayed a nuclei count of 103. Under `O=C(O)CCCc1ccccc1` [sodium 4-Phenylbutyrate] stands 108. Take `CC1CC(OC(=O)C(O)c2ccccc2)CC(C)(C)N1C` (centres undefined) [Eucatropine hydrochloride]: the nuclei count was determined as 107.

Regarding `COc1ccccc1S(=O)(=O)Nc1ccc2c(c1)CN(C)C(=O)N2`, the nuclei count came out at 91.1 ± 1.5.

The molecule `c1cc2c(cc1C1CCCCC1)c1c3n2CCNC3CCC1` (centres undefined) [Tetrindole mesylate] came in with a nuclei count of 75.8. `CCN1CCC[C@H]1CNC(=O)c1c(OC)ccc(Br)c1OC` [Remoxipride Hydrochloride] registered a nuclei count of 91.9. Regarding `CCN1CCC[C@H]1CNC(=O)c1c(OC)ccc(Br)c1OC` [Remoxipride hydrochloride], the nuclei count was found to be 90.6. Under `CCN1CCN(c2cc3c(cc2F)c(=O)c(C(=O)O)cn3C2CC2)CC1` [Enrofloxacin] stands 107. For `FC(F)c1nc2ccccc2n1-c1nc(N2CCOCC2)nc(N2CCOCC2)n1`, the nuclei count was 106.

Molecule `Cc1nnc(NS(=O)(=O)c2ccc(N)cc2)s1` [Sulfamethizole] displayed a nuclei count of 101.

Turning to `N=C(N)S/C=C\C(=O)O` [ZAPA sulphate], the nuclei count worked out at 103. For the molecule `CN(C)c1ccc(/C=C2/C(=O)Nc3ccccc32)cc1`, the nuclei count is 84.7. With `CNC(=O)[C@H](Cc1c[nH]c2ccccc12)NC(=O)[C@@H](CC(=O)NO)CC(C)C`, the nuclei count came to 99.7. Under `C[C@H]1C[C@H]2[C@@H]3CCC4=CC(=O)C=C[C@]4(C)[C@@]3(F)[C@@H](O)C[C@]2(C)[C@@]1(O)C(=O)CO` [Betamethasone (Celestone)] stands 106; under `C[C@H]1C[C@H]2[C@@H]3CCC4=CC(=O)C=C[C@]4(C)[C@@]3(F)[C@@H](O)C[C@]2(C)[C@@]1(O)C(=O)CO` [Betamethasone], 102.

Molecule `CCCC(CCC)C(=O)NO` [Valproic acid hydroxamate] registered a nuclei count of 95.7. Under `Cc1cc(/C(=C/Nc2ccc(Cl)cc2)C(=O)Nc2ccc(Cl)cc2)on1` stands 102; under `Oc1ccc(OCc2ccccc2)cc1` [Monobenzone], 73.5; under `Cc1cc(Nc2ncnc3ccc(-c4ccc(CNCCS(C)(=O)=O)o4)cc23)ccc1Oc1ccn2ncnc2c1` [HER2 Inhibitor 1], 92.5. Under `CC(C(=O)O)c1ccc(N2Cc3ccccc3C2=O)cc1` (centres undefined) [Indoprofen] stands 106; under `CC1=Nc2ccc(Cl)cc2S(=O)(=O)N1` [Diazoxide], 96.7 ± 7.7; under `O=C(NCCO[N+](=O)[O-])c1cccnc1` [Nicorandil], 106 ± 3.6. Under `Cc1ccc(Cl)c(Nc2ccccc2C(=O)O)c1Cl` [Meclofenamic acid sodium salt monohydrate] stands 103; under `C=C1/C(=C\C=C2/CCC[C@]3(C)[C@@H]([C@H](C)/C=C/[C@@H](O)C4CC4)CC[C@@H]23)C[C@@H](O)C[C@@H]1O` [Calcipotriol], 87.7. `C=C1/C(=C\C=C2/CCC[C@]3(C)[C@@H]([C@H](C)/C=C/[C@@H](O)C4CC4)CC[C@@H]23)C[C@@H](O)C[C@@H]1O` [Calcipotriene] gave a nuclei count of 99.6.

For the molecule `COC(=O)Nc1nc2ccc(SC(C)C)cc2[nH]1` [Methiazole], the nuclei count came to 27.1. Molecule `COC(=O)C1=C(C)NC(C)=C(C(=O)OCCCN2CCC(c3ccccc3)(c3ccccc3)CC2)[C@H]1c1cccc([N+](=O)[O-])c1` [Niguldipine] registered a nuclei count of 42.7 ± 30. Regarding `COC(=O)C1=C(C)NC(C)=C(C(=O)OCCCN2CCC(c3ccccc3)(c3ccccc3)CC2)[C@H]1c1cccc([N+](=O)[O-])c1` [(S)-(+)-Niguldipine hydrochloride], the nuclei count was determined as 73.5. `COC(=O)C1=C(C)NC(C)=C(C(=O)OCCCN2CCC(c3ccccc3)(c3ccccc3)CC2)[C@H]1c1cccc([N+](=O)[O-])c1` [S-(+)-Niguldipine hydrochloride] had a nuclei count of 59.3. `CN(C)CCOc1ccc(/C(=C(/CCCl)c2ccccc2)c2ccccc2)cc1` [Toremifene]: the nuclei count came out at 98.9. The result for `CCN1CCN(C(=O)N[C@@H](C(=O)N[C@@H]2C(=O)N3C(C(=O)O)=C(CSc4nnnn4C)CS[C@H]23)c2ccc(O)cc2)C(=O)C1=O` [Cefoperazone dihydrate] reads 94.4; that for `CCOc1nc2cccc(C(=O)O)c2n1Cc1ccc(-c2ccccc2-c2noc(=O)[nH]2)cc1` [Azilsartan (TAK-536)], 95.9; that for `COCCOC(=O)C1=C(C)NC(C)=C(C(=O)OC/C=C/c2ccccc2)C1c1cccc([N+](=O)[O-])c1` (centres undefined) [Cilnidipine], 92.6 ± 4.8. Molecule `CCCCNc1ccc(C(=O)OCCOCCOCCOCCOCCOCCOCCOCCOCCOC)cc1` [Benzonatate] came in with a nuclei count of 98.3. `Cc1cc([C@@H](C)Nc2ccccc2C(=O)O)c2nc(N3CCOCC3)cc(=O)n2c1` displayed a nuclei count of 98.4. The result for `O=C1c2ccccc2C(Cc2ccnc(F)c2)(Cc2ccnc(F)c2)c2ccccc21` reads 110; that for `Cc1cc(/C=C/c2ccc3cc(N(C)C)ccc3[n+]2C)c(C)n1-c1ccccc1` [Pyrvinium pamoate], 6.32. The result for `CCCCN1CCC(CCC(=O)c2cc(Cl)c(N)cc2OC)CC1` reads 107. `CCn1nc(C(=O)O)c(=O)c2cc3c(cc21)OCO3` [Cinoxacin]: the nuclei count is 104. Under `O=c1c(-c2ccc(O)cc2)coc2c([C@@H]3O[C@H](CO)[C@@H](O)[C@H](O)[C@H]3O)c(O)ccc12` [Puerarin (Kakonein)] stands 105; under `CNC(=O)c1cc(COc2nnc(Nc3ccc(Cl)cc3)c3ccoc23)ccn1` [Telatinib (BAY 57-9352)], 102. With `CCCc1nc(C)c2c(=O)nc(-c3cc(S(=O)(=O)N4CCN(CC)CC4)ccc3OCC)[nH]n12` [Vardenafil], the nuclei count came to 99.1. Under `CCCc1nc(C)c2c(=O)nc(-c3cc(S(=O)(=O)N4CCN(CC)CC4)ccc3OCC)[nH]n12` [Vardenafil Hydrochloride Trihydrate (Vivanza)] stands 103. The result for `O=C(O)/C=C/c1ccc(Cn2ccnc2)cc1` [Ozagrel hydrochloride] reads 103 ± 8.9; that for `COc1cc2nccc(Oc3ccc(NC(=O)C4(C(=O)Nc5ccc(F)cc5)CC4)cc3)c2cc1OC` [Cabozantinib malate], 59; that for `COc1cc2nccc(Oc3ccc(NC(=O)C4(C(=O)Nc5ccc(F)cc5)CC4)cc3)c2cc1OC` [XL-184 free base (Cabozantinib)], 51.5. On to `CCn1ccnc1CC1COc2ccccc2O1` (centres undefined) [Imiloxan hydrochloride], for which the nuclei count came to 103. The result for `CNC(C)C1CCC(N)C(OC2C(N)CC(N)C(OC3OCC(C)(O)C(NC)C3O)C2O)O1` (centres undefined) [Gentamycin sulfate (Gentacycol)] reads 79.5. `Cc1c(F)cc(C(=O)NC2CC2)cc1-c1ccc(C(=O)NCC(C)(C)C)cn1` [Losmapimod] showed a nuclei count of 91.4.

On to `COc1ccc(S(=O)(=O)N(C(C)=O)c2ccccc2/C=C/c2cc[n+]([O-])cc2)cc1`, for which the nuclei count worked out at 22.85 ± 0.22. The result for `CC[C@H]1OC(=O)[C@H](C)[C@@H](O[C@H]2C[C@@](C)(OC)[C@@H](O)[C@H](C)O2)[C@H](C)[C@@H](O[C@@H]2O[C@H](C)C[C@H](N(C)C)[C@H]2O)[C@](C)(O)C[C@@H](C)[C@@H]2N[C@@H](COCCOC)O[C@H]([C@H]2C)[C@]1(C)O` [Dirithromycin] reads 102; that for `O=C1CC2(CCCC2)CC(=O)N1CCCCN1CCN(c2ncccn2)CC1` [Buspirone hydrochloride], 101 ± 6.5. The result for `CC(C)c1cc(-c2ccc(F)c3ccccc23)nc(N)n1` reads 101; that for `O=C(NOC[C@H](O)CO)c1ccc(F)c(F)c1Nc1ccc(I)cc1F`, 95.8. For `Cc1cc(C)c(/C=C2\C(=O)Nc3ccccc32)[nH]1`, the nuclei count is 107.

`Cc1cc(C)c(/C=C2\C(=O)Nc3ccccc32)[nH]1` [Semaxanib (SU5416)] displayed a nuclei count of 100. In turn, `O=c1cc[nH]c(=S)[nH]1` [2-Thiouracil] had a nuclei count of 102.

Regarding `CC(C)CC(=O)N[C@H](C(=O)N[C@H](C(=O)N[C@@H](CC(C)C)[C@@H](O)CC(=O)N[C@@H](C)C(=O)N[C@@H](CC(C)C)[C@@H](O)CC(=O)O)C(C)C)C(C)C` [Pepstatin A], the nuclei count is 101 ± 4.6. Under `N[C@H](C(=O)O)c1cc(O)cc(O)c1` stands 99.8; under `Cc1cccc(C#Cc2ccccc2)n1` [MPEP hydrochloride], 105; under `c1ccc(C(NCc2cccnc2)(c2ccccc2)c2ccccc2)cc1`, 91.5.

For the molecule `C[C@H](O)C(=O)Nc1c(I)c(C(=O)NC(CO)CO)c(I)c(C(=O)NC(CO)CO)c1I` [Iopamidol], the nuclei count worked out at 91.4. Take `COC(=O)C1=C(C)NC(C)=C(C(=O)OCCSc2ccccc2)C1C` (centres undefined): the nuclei count stood at 97.8. For the molecule `Nc1nc(NCCc2ccc(O)cc2)nc2nc(-c3ccco3)nn12`, the nuclei count amounted to 114. The result for `O=C(/C=C/c1ccc(CN(CCO)CCc2c[nH]c3ccccc23)cc1)NO` [LAQ824 (NVP-LAQ824, Dacinostat)] reads 26.9; that for `CN1CCN(CCOc2cc(OC3CCOCC3)c3c(Nc4c(Cl)ccc5c4OCO5)ncnc3c2)CC1` [Saracatinib (AZD0530)], 87.9. Turning to `O=C(NCC(O)CO)c1c(I)c(C(=O)NCC(O)CO)c(I)c(N(CCO)C(=O)CO)c1I` (centres undefined) [Ioversol], the nuclei count was 108. Take `CO/N=C(\C(=O)N[C@@H]1C(=O)N2C(C(=O)O)=C(COC(N)=O)CS[C@H]12)c1ccco1` [Cefuroxime sodium salt]: the nuclei count stood at 111. For the molecule `Nc1ccc(S(=O)(=O)Nc2ccnn2-c2ccccc2)cc1` [Sulfaphenazole], the nuclei count was found to be 102.

`COc1cc(/C=C(\C#N)C(N)=O)cc(CSc2nc3ccccc3s2)c1O` registered a nuclei count of 101. Under `CCOCC(O)COc1ccc(NC(=O)CC[S+](C)C)cc1` (centres undefined) [Suplatast tosylate] stands 102.
